Screen size: about 310,000 compounds; about 14,000 (4.5%) showed an effect of 50% or more. Effects have a minus sign here. The list shows a part of the results.
biological target: human ether-à-go-go-related gene (hERG) potassium channel (human, UniProt Q12809); experiment: primary screen, population patch clamp on CHO cells stably expressing hERG
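Also: peak tail current of the secondary pulse compared with the same well before compound.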

Sequence of human ether-à-go-go-related gene (hERG) potassium channel (Q12809 whole entry, looked up): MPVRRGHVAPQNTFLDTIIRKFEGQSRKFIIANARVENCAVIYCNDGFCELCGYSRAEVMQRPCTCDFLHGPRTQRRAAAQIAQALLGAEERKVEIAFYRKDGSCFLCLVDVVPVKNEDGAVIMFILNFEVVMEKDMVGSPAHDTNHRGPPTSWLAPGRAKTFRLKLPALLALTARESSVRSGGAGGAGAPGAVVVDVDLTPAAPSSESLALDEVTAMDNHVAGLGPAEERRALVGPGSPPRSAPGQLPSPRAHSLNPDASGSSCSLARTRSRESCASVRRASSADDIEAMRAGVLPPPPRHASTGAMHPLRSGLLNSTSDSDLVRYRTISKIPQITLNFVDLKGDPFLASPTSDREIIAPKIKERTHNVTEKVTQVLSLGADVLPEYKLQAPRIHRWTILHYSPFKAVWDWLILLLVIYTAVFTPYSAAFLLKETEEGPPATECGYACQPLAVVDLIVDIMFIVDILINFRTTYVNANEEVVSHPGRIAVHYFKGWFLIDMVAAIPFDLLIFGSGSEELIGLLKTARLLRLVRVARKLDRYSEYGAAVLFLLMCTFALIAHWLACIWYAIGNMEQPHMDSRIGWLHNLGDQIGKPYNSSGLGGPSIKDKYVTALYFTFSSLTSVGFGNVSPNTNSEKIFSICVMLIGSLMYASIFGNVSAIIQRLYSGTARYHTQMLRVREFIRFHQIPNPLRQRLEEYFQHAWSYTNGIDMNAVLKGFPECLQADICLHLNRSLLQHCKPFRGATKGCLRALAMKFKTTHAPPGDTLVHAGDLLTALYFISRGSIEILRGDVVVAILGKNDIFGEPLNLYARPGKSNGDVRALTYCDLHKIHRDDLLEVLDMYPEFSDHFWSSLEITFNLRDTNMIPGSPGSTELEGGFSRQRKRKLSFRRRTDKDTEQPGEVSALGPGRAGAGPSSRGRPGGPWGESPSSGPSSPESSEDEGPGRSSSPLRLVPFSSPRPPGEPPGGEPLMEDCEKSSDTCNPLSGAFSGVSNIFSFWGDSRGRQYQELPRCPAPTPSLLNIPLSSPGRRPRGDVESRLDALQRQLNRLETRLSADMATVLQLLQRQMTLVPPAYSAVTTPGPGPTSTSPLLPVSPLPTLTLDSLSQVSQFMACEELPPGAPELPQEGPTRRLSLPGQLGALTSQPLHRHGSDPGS

SMILES	hERG current change (%, negative = inhibition) at 10uM [%]
COc1ccc(Cc2nnc(SC(C)C(=O)Nc3ccc(F)cc3Cl)o2)cc1 (centres unmarked)	-2.31
O=C(CS(=O)(=O)Cc1ccccc1)N1CCN(c2cccc(C(F)(F)F)c2)CC1	-27.7
O=C(NCCCn1ccnc1)Nc1ccc(Cl)c(Cl)c1	-36.3
Cc1cc(C)c2c(N)c(-c3nc4ccccc4[nH]3)sc2n1	-2.46
O=C(O)c1ccccc1C(=O)c1ccc(Cl)cc1	8.46
NC(=O)c1cnn2c1NC(c1ccc(F)cc1)CC2C(F)(F)F (centres unmarked)	-22.7
Cc1occc1C(=O)N1CCN(c2ccc(Cl)cc2)CC1	-4.41
CCOc1ccc(NC(=O)CNC(=O)c2cn(-c3ccccc3OC)c(=O)c3ccccc23)cc1	-9.87
C=CCc1ccccc1OCC(CN1CCCCC1)OC(C)=O.Cl (centres unmarked)	-30.6
Cc1cccc(OCc2nn[nH]n2)c1C	4.8
O=C(Nc1ccon1)c1ccc(Br)s1	-9.89
Cn1c(O)c(N=Nc2cccc(S(=O)(=O)N3CCOCC3)c2)c(=O)n(C)c1=O	2.24
COc1cccc(N=C2CC(C)(C)CC(=O)/C2=C(/O)c2ccccc2)c1	-30.1
Nc1ccc(-c2nnc(-c3ccccc3)o2)cc1	-0.0392
CCN(C(=O)c1cccc(Br)c1)c1ccccc1	9.79
Cc1occc1-c1nnc(SCC(=O)NC2CCCC2)n1C	15.5
C[C@@H]1C(NC(=O)c2ccccc2)CC2CC1C2(C)C (some centres unmarked)	6.83
CCn1c(C)nc2cc(C(=O)NNC(=S)NC(=O)c3ccc(OC)cc3)ccc21	2.55
O=S(=O)(c1ccc2c(c1)OCCO2)N1CCN(c2ncnc3sccc23)CC1	-34.5
Cc1c(C(=O)NCCN(C)C)oc2ccc(S(=O)(=O)N3CCCC3)cc12	13
Cc1ccc(C)c(NC2=C(Cl)C(=O)OC2OC(C)C)c1 (centres unmarked)	16.2
COc1ccc(S(=O)(=O)N(CCN2CCOCC2)Cc2cc(OC)ccc2OC)cc1	-10.7
O=C(C1CCN(S(=O)(=O)N2CCOCC2)CC1)N1CCN(Cc2ccccc2)CC1	-9.22

SMILES	hERG current change (%, negative = inhibition) at 10uM [%]
O=S(=O)(NCc1ccccc1)c1ccc2c(c1)OCCO2	-8.08
C=CCn1c(SCC(=O)Nc2ccccc2)nc2scc(-c3cccs3)c2c1=O	8.69
Cc1ccc(C(O)(c2ccc(C)c(C)c2)C2CN3CCC2CC3)cc1C.Cl (centres unmarked)	-67.6
O=C(CC(Cc1ccccc1)c1ccco1)NCc1ccco1 (centres unmarked)	-3.67
COc1cc(F)ccc1S(=O)(=O)NCc1cccnc1	-2.98
Cc1cccc(Nc2nc(N)c([N+](=O)[O-])c(N3CCC(C)CC3)n2)c1	-15.7
Cc1ccc(NC(=O)c2ccc(N3CCOCC3)c([N+](=O)[O-])c2)cc1S(=O)(=O)N1CCOCC1	-27.9
CC(=O)Nc1ccc(CN2CCN(CC=C(C)C)C(CCO)C2)cc1 (centres unmarked)	8.81
C=CCNC(=O)CSc1nc2sccc2c(=O)n1-c1ccccc1	1.59
O=[N+]([O-])c1ccc(Cl)c(C[n+]2cccc3ccccc32)c1.[Br-]	11.5
CCN1/C(=C/C=C/c2sc3ccccc3[n+]2CC)Sc2ccccc21.[I-]	-73.8
COc1ccc(C)cc1S(=O)(=O)Nc1cc2c3c(c1)C(C)C(=O)N3CCC2 (centres unmarked)	3.78
Cc1ccc(COC(=O)Cc2coc3cc(O)ccc23)cc1	12.8
CC(Sc1nnc(-c2ccccc2Br)n1-c1cccc(C(F)(F)F)c1)C(N)=O (centres unmarked)	-7.08
COCOc1ccc(-c2cc(=O)c3c(OCOC)cc(OCOC)cc3o2)cc1	-41
COc1ccc(CNCCc2c(C)[nH]c3ccc(OC(F)(F)F)cc23)c(OC)c1.O=C(O)C(=O)O	-51
CS(=O)(=O)N(CC(=O)N1CCN(c2ccccc2)CC1)c1cccc(Br)c1	-19.2
CC1(C)Cc2ccccc2C(=NCC(=O)O)N1	17.6
CCOc1ncccc1C(=O)Nc1ccc(C(=O)Nc2ccc(OC)cc2)cc1	0.719
O=C(Nc1ccccc1OC(=O)c1ccc(Cl)cc1)c1ccc(Cl)cc1	6.58
COC(=O)c1cc(N=C(N)N=C(N)N)cc(C(=O)OC)c1	14.4
CCOC(=O)c1cnc(-n2nc(C)cc2C)nc1Oc1ccc(C#N)cc1	21.3
CN(C)S(=O)(=O)c1ccc(C(=O)Nc2nnc(SCc3cccc4ccccc34)s2)cc1	1.71

SMILES	hERG current change (%, negative = inhibition) at 10uM [%]
COc1ccccc1C(=O)NNC(=O)c1ccc(NC(=O)c2ccccc2)cc1	13.3
O=C(N/N=C/c1cccs1)c1cccc2cc[nH]c12	-6.53
CCN(CC(=O)Nc1cc(Cl)ccc1C)C(=O)C1CCCCC1	3.73
Cc1ccccc1C(=O)NCc1nnc(SCC(=O)N2CCN(c3ccccc3)CC2)n1C	2.55
COc1cccc(NC(=O)COc2ncnc3sc(C)c(C)c23)c1	10.1
Cc1c(Br)c([N+](=O)[O-])nn1CC(=O)Nc1ccc(Cc2ccncc2)cc1	6.16
COc1ccc(-c2noc(N3CCC(C(=O)NCc4ccc(Cl)cc4)CC3)n2)cc1	1.42
O=S(=O)(NCCc1csc(-c2cccnc2)n1)c1ccc(Cl)s1	-41.6
CC(=O)c1ccc(COC(=O)c2ccccc2NC(=O)C(C)C)cc1	-25.6
N/C(=N\OC(=O)c1cccc(Br)c1)c1ccncc1	-21.8
CCC1Oc2ccccc2N(CC(=O)NCCCN2CCOCC2)C1=O (centres unmarked)	-4.71
CC(=O)c1cccc(NC(=O)c2ccc3c(c2)CCN3S(=O)(=O)c2ccccc2)c1	18.4
Cc1ccc(-c2ccnc(=S)[nH]2)cc1	17.8
COc1ccc(N2CCN(C(CNC(=O)C(=O)NCCc3c[nH]c4ccccc34)c3ccco3)CC2)cc1 (centres unmarked)	-3.79
O=C(c1ccc(F)cc1)N1CCOCC1	10.1
CCOc1ccc(Nc2ccc3nonc3c2[N+](=O)[O-])cc1	10.6
O=C(Cc1ccccc1)Nc1nnc(-c2cccc([N+](=O)[O-])c2)s1	5.44
CC1CC(C)CN(C(=O)c2cc(S(=O)(=O)N3CCCCC3)ccc2Cl)C1 (centres unmarked)	-37.7
Oc1cccc(-c2nc3ccc4ccccc4c3c3c2CCC3)c1	9.27
Nc1c2c(nn1-c1ccccc1)CCC2	2.92
Cc1cc(=O)oc(C)c1C(=O)OCC(=O)c1ccccc1	-5.02
Cc1ccc(OCC(=O)NNC(=O)CCC(=O)NCc2ccccc2)cc1	-19.4
CN1C(=O)N(C)c2cccc3cccc1c23	4.32

SMILES	hERG current change (%, negative = inhibition) at 10uM [%]
CC(Cc1c[nH]c2ccccc12)C(=O)N1CCN(c2ccccc2F)CC1 (centres unmarked)	7.75
COc1ccccc1NC(=O)c1nn(C)cc1Br	9.74
Cc1cccc(C)c1OCC(=O)NNC(=O)CCNC(=O)c1ccc(Br)cc1	-3.79
CCOc1ccccc1/C=C\c1nc(O)c([N+](=O)[O-])c(=O)[nH]1	5.91
O=C(COC(=O)CNS(=O)(=O)c1ccc2ccccc2c1)Nc1ccccc1Sc1ccccc1	17.8
Cc1ccc(S(=O)(=O)NCCN(CCNS(=O)(=O)c2ccc(C)cc2)S(C)(=O)=O)cc1	-5.95
O=C(Nc1cccc2c1CCCC2)c1ccc(Br)o1	-21.6
CCCCN(C)C/C(O)=C(\C#N)c1nc(-c2ccccc2)cs1	-5.98
CC(C)Cc1ccc(CN2CCCC(NC(=O)CSc3nncn3C)C2)cc1 (centres unmarked)	-23.7
Nc1ncnc2c1ncn2C1OC(CO)C(O)C1O (centres unmarked)	35.7
COc1ccc(NC(=O)CN(C)C(=O)CNC(=O)c2cccs2)cc1	5.89
COc1ccc(N=C2NN=C(c3ccc4c(c3)OCCO4)CS2)cc1	5.68
Cc1ccc2cc3c(nc2c1)N(c1ccccc1)CC3	2.24
COc1ccc(C2C3=C(CCCC3=O)Nc3c(-c4ccccc4)c(C)nn32)cc1 (centres unmarked)	-14.1
N#CCC(=O)Nc1ccc(C(=O)OCC(=O)C23CC4CC(CC(C4)C2)C3)cc1	12.7
O=C(Cc1cccc2ccccc12)N1CC[C@@]2(O)CCCC[C@H]2C1	12.5
CCOc1ccc(N2C(=O)C3CCCN3C2=O)cc1 (centres unmarked)	10.1
CCOc1ccc(NS(=O)(=O)c2ccc(C(=O)N(CC)CC(=O)NCc3cccs3)cc2)cc1	-6.91
O=S1(=O)Cc2cc3ccccc3cc2C1	11.7
CCOC(=O)C1NN=C(C(=O)c2ccccc2)C1c1ccc(Cl)cc1 (centres unmarked)	-22.4

Reference: article PMC4336329 (PLoS ONE, 2015)
